The whole screen tested about 280,000 compounds, of which about 1,100 (0.39%) were called active. This list was built around the results that the source calls inconclusive (neither active nor inactive); the mix of calls is not that of the screen. Calls follow the shape of the dose curve; as a rule, active = well fitted inhibition curve with a large enough effect; inconclusive = small, poorly fitted or top-dose-only effect, or effect the other way; inactive = flat fitted curve, though single readings scatter. Potencies of inconclusive entries are left out as doubtful fits.
molecular target: Microtubule-associated protein tau (Homo sapiens) (UniProt P10636); assay: qHTS for Inhibitors of Tau Fibril Formation, Fluorescence Polarization; settings: K18 P301L tau heparin fibrillization, Alexa594 FP, 6 h; series mostly up to 57.7 µM; also: nearly all actives have a fitted effect of over 55% in size
Chain of UniProt P10636 (P10636 whole entry, looked up): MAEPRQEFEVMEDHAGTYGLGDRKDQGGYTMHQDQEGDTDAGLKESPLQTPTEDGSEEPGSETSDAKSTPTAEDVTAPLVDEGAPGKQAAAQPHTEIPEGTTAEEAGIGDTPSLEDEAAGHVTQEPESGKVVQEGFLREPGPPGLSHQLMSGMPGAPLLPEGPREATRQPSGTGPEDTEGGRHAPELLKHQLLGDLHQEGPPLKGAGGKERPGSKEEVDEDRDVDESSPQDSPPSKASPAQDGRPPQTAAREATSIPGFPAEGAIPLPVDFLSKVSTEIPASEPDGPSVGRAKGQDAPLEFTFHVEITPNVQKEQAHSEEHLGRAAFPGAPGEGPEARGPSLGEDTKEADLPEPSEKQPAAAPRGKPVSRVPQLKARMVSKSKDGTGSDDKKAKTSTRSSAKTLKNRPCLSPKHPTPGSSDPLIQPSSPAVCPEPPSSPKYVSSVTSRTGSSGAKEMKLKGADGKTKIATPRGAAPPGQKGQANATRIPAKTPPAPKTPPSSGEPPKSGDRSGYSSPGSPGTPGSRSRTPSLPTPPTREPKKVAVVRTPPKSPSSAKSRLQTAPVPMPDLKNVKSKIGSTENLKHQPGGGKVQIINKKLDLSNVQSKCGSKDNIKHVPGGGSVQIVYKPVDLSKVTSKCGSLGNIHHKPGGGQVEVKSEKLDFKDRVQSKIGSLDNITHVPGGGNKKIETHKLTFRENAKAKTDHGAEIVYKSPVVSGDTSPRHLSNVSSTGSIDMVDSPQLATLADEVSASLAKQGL
How it was run: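 FP of Alexa 594-tau after heparin (20 uM) induction. Substrate: human K18 P301L, 15 uM unlabeled, 0.24 uM labeled. Buffer 100 mM sodium acetate pH 7. 6 hr, 37 C.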
Potency is read from the fitted curve at half-maximal effect; tags tell the direction and shape of the fitted curve.

Compound	Potency
Cc1ccc(-n2nc(C)c3c2OC(N)=C(C#N)C3c2ccc(C)o2)cc1 (centres undefined)	inconclusive [inhibitor, single point]
CC1=NN(c2ccccc2)C(=O)/C1=C/c1c(O)n(-c2ccc(F)c(Cl)c2)[nH]c1=O	inconclusive [activator, full curve]
COc1ccc(C2Nc3ccc4ccccc4c3-c3c2c(=O)oc2ccccc32)cc1 (centres undefined)	inconclusive [inhibitor, single point]
O=c1cc(-c2ccc(Br)cc2)[nH][nH]1	inconclusive [inhibitor, full curve, poor fit]
O=C(NCc1cccc(Cl)c1)c1cc2c(s1)-c1ccccc1SC2	inconclusive [inhibitor, partial curve]
O=C(Cn1c(=O)n(-c2ccc(Cl)cc2)c(=O)c2c3c(sc21)CCCCC3)Nc1cccc(Cl)c1	inconclusive [inhibitor, partial curve]
COc1ccc(/C=N/NC(=O)c2ccccc2Cl)cc1CSc1nc2ccccc2s1	inconclusive [inhibitor, single point]
Cc1ccc2c(c1)C(c1ccc([N+](=O)[O-])cc1)=NNC(c1ccc(Br)cc1)=N2	inconclusive [activator, partial curve, poor fit]
Cc1ccccc1C(=O)Nc1cc2c(cc1N1CCCCC1)n(C)c(=O)n2C	inactive
Cc1cc(C)c2nc(N3CCCC(C(=O)NCc4ccccc4F)C3)sc2c1 (centres undefined)	inactive
Cc1ccc(C(=O)N2CCn3c(C)ccc3C2C)cc1 (centres undefined)	inconclusive [inhibitor, single point]
Cc1c(C)c2cc3c(c(C)c2oc1=O)OCN(CCc1ccccc1)C3	inactive
COc1cccc(CC(=O)Nc2ccc(-c3nc4ccccc4s3)cc2Cl)c1	inconclusive [inhibitor, full curve, poor fit]
c1ccc(CCNc2ncnc3scc(C4COc5ccccc5O4)c23)cc1 (centres undefined)	inactive
CCN1CCN(C(=S)Nc2ccc3nc(N4CCN(CC)CC4)cc(C)c3c2)CC1	inconclusive [inhibitor, single point]
O=C(C1=C[C@H](c2csc3ccccc23)C[C@H](OCCCCO)O1)N1CCN(Cc2ccc3c(c2)OCO3)CC1	inconclusive [activator, single point]
Cc1cccc(-c2nnc(N)s2)c1	inactive
Cc1ccc2nsnc2c1NC(=O)c1ccc(-c2cc(Cl)ccc2Cl)o1	inactive
Clc1ccc(OCc2cn3cccnc3n2)c2ncccc12	inconclusive [inhibitor, full curve, poor fit]
CN1CCN(/N=C/c2c3ccccc3c(Cl)c3ccccc23)CC1	inconclusive [activator, full curve]
CC(C)C[C@@H](CC(=O)N[C@H](CC(=O)N[C@@H]1CCNC[C@H]1C(=O)N[C@H](CC(=O)N[C@@H](CCC(=O)O)CC(=O)O)CC(C)C)C(C)C)NC(=O)[C@@H]1CNCC[C@H]1N	inactive
COc1ccc(OC)c(N=CC2=C(O)CC(C)(C)CC2=O)c1	inactive
O=C1NCCCC1C(=O)N/N=C/c1cccc(Cl)c1 (centres undefined)	inactive

Compound	Potency
COC(=O)c1sc2c(c1C)c(=O)n(-c1ccccc1)c(=O)n2CC(=O)Nc1cccc(C)c1	inconclusive [inhibitor, single point]
CCc1ccccc1NS(=O)(=O)c1ccc2c(c1)CCCN2C(=O)C1CCC1	inactive
COc1ccc(-c2csc(Nc3cccnc3)n2)cc1OC	inactive
C(=N\N(c1ccccc1)c1ccccc1)/c1ccc(N2CCOCC2)s1	inactive
CSc1ccc(CCNC(=O)c2cc3cc(S(=O)(=O)N4CCCCC4)ccc3n2C)cc1	inactive
COc1ccc(S(=O)(=O)N(C(C)=O)c2ccc3oc(=O)sc3c2)cc1	inactive
COc1ccc(N2CC(NC(=O)C3CCCC3)CC2=O)cc1OC (centres undefined)	inactive
CCN(CC)S(=O)(=O)c1cc(NC(=O)c2cc(-c3ccccn3)nc3ccccc23)ccc1C	inconclusive [inhibitor, partial curve]
CC(=O)N1CCc2cc(S(=O)(=O)CCC(=O)N3CCN(C(=O)c4ccco4)CC3)ccc21	inactive
CCOC(=O)c1ccc(NC(=S)N(CCN2CCCCCC2)Cc2ccco2)cc1	inactive
CCC(C)NC(=O)C1c2cc(OC)c(OC)cc2C(=O)N(C)C1c1ccc(OC)cc1 (centres undefined)	inactive
C/C(=C\C[Si](C)(C)C)CCC=O	inactive
Cc1cc(C)nc(NC(=O)c2ccc(C)c([N+](=O)[O-])c2)n1	inactive
O=C(O)CC1S/C(=N/N=C/c2ccc(-c3ccc(Cl)cc3[N+](=O)[O-])o2)NC1=O (centres undefined)	active: 1.58 µM
O=C(Cn1cnc2ccccc21)N/N=C/c1ccccc1[N+](=O)[O-]	inconclusive [inhibitor, full curve, poor fit]
Cc1cccc(CC(=O)NCc2nc3cccnc3n2Cc2ccc(F)cc2)c1	inactive
CCCOc1ccc(C(=O)Nc2ccc(NC(=O)c3ccccc3)c(C)c2)cc1	inconclusive [inhibitor, single point]
CC1CCCN(CCOc2ccc(Br)cc2)C1 (centres undefined)	inactive
CS(=O)(=O)N(Cc1ccc(Cl)cc1)c1ccc(C(=O)N2CCN(c3ccccc3)CC2)cc1	inactive
COc1ccc(C(=O)/C=C/c2cn(CC(O)CN3CCOCC3)c3ccccc23)cc1 (centres undefined)	inconclusive [activator, partial curve, poor fit]
CSc1ccccc1NC(=O)CN(C)CC(=O)Nc1ccccc1C(F)(F)F	inactive
CCOCCCNC(=O)c1ccc(-n2c(-c3ccccc3)cc3c2CCCCC3)cc1	active: 20 µM
CCC(=O)N1CCc2cc(Br)cc(S(=O)(=O)CCC(=O)Nc3cccc(C)c3C)c21	inconclusive [inhibitor, single point]

Compound	Potency
CN(C)CCCNc1cc(C(C)(C)C)nc2c(-c3ccccc3)cnn12	inconclusive [activator, partial curve]
Cc1cc(C)cc(NC(=O)N2CCN(c3cc(-c4noc(C)n4)ccc3C)CC2)c1	inconclusive [inhibitor, single point]
CCOC(=O)N1CCN(c2ccc(C(=O)CC)cc2F)CC1	inconclusive [inhibitor, single point]
CC1(C)CC(=NOC(=O)c2ccccc2)CC(C)(C)N1O	inconclusive [inhibitor, single point]
Cc1[nH]c2ccc(-c3n[nH]c(=S)n3-c3ccc(Br)cc3)cc2c1C	inactive
COc1ccc(N2CCN(C(=O)c3cc4c(-c5cccc(OC)c5)nn(C)c4s3)CC2)cc1	inconclusive [activator, partial curve]
Cc1cccc(Cn2c(SCc3ccc(C(=O)NC4CCCC4)cc3)nc3ccncc32)c1	inconclusive [inhibitor, full curve, poor fit]
O=C(Cc1cnn(-c2ccccc2)c1)c1ccc(O)c(O)c1O	inconclusive [inhibitor, partial curve]
Cc1ccc(NC(=O)c2sc(-n3nc(C)c(Cc4ccc5c(c4)OCO5)c3C)nc2C)cc1Cl	inconclusive [inhibitor, single point]
CN(C)S(=O)(=O)c1cc(NC(=O)COC(=O)Cc2cccc3ccccc23)ccc1Cl	inconclusive [inhibitor, partial curve]
O=C(Cn1nnc(-c2ccc(CN3CCOCC3)cc2)n1)Nc1nc(-c2ccccc2)cs1	inconclusive [inhibitor, single point]
Cc1cc(F)ccc1NCC(=O)Nc1ccccc1Br	inactive
CCCCCn1c(=O)[nH]c2cc(C(=O)NCc3ccccc3)ccc2c1=O	inconclusive [inhibitor, partial curve, poor fit]
Cc1nnc(-c2cnn(-c3ccccc3)c2N)n1Cc1cccc(C(F)(F)F)c1	inactive
Cc1ccc(-n2c(SCC(=O)c3ccccc3)nc3c([nH]c4ccccc43)c2=O)cc1	inconclusive [inhibitor, single point]
COc1ccccc1CC(=O)Nc1ccc2nc(Nc3cccc(Cl)c3)cc(C)c2c1	inconclusive [inhibitor, single point]
COc1ccc(/C=N/N(Cc2ccccc2)c2ccccc2)cc1O	inconclusive [activator, full curve, poor fit]
COC(=O)/C(=C/N(C)C)C(=O)N1CCN(c2ccc(Cl)c(Cl)c2)CC1	inconclusive [inhibitor, single point]
O=C(CSc1nccn1-c1ncc(C(F)(F)F)cc1Cl)c1ccc(Cl)cc1	inconclusive [inhibitor, partial curve]
COc1cccc(NC(=O)Cn2c(=O)n(CCCCC(=O)NCc3ccccc3Cl)c(=O)c3ccccc32)c1	inconclusive [inhibitor, single point]
COC(=O)Nc1ccc(SCC(=O)c2ccc(Cl)cc2)cc1	inconclusive [inhibitor, single point]
CC(C)c1ccc(NC(=O)Cn2cc(S(=O)(=O)Cc3ccccc3Cl)c3ccccc32)cc1	inconclusive [inhibitor, partial curve]
O=C(Nc1ccc2oc(-c3cccc(F)c3)nc2c1)c1ccc2ccccc2c1	inconclusive [inhibitor, partial curve, poor fit]
